According to PubChem BioAssay AID1347073 (National Center for Advancing Translational Sciences (NCATS), 2019):
In all, about 45,000 compounds went through this assay and about 200 (0.44%) were called active. About 7% were inconclusive and are not listed. Calls come from the whole dose curve; as a rule, active = well fitted activation curve with a large enough effect; inconclusive = small, poorly fitted or top-dose-only effect; inactive = no such curve, though single readings can be large or run the other way. Some of the results follow.

Experiment: qHTS of TDP-43 Inhibitors: NCGC Sytravon Library Screen; note: 0% is about no effect; nearly all actives have a fitted effect of over 55% in size
Details: yeast TDP-43 toxicity rescue, BacTiter-Glo growth, 24 h; series mostly up to 46.1 µM; growth rescue (activation): at the top concentration
Method in brief: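 TDP-43-expressing yeast, pregrown in raffinose, seeded at OD600 0.02 in galactose medium with compound for 24 hr at 30 deg C. Growth read by BacTiter-Glo luminescence, so rescue of toxicity appears as activation.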

Structure (SMILES) | growth rescue (activation)
N#CC1=C(N)OC2=C(CN(Cc3ccccc3)C/C2=C\c2cccnc2)C1c1cccnc1 (configuration not stated) | inactive: 7.42%
COc1cc(OC)c(OC)cc1CNC(=O)c1cc(=O)[nH]c2ccccc12 | inactive: 8.28%
O=C(Nc1cnc2sc3c(n2c1=O)CCCC3)c1ccc(F)cc1 | inactive: 20.5%
CC1CN(c2nc(Nc3ccccc3F)nc(N)c2[N+](=O)[O-])CC(C)O1 (configuration not stated) | inactive: 25.6%
NC(=O)c1ccc(NC(=O)Cc2cccs2)cc1 | inactive: -5.63%
COC(=O)C1=CN(Cc2ccc(OC)cc2)C=C(C(=O)OC)C1c1ccc(O)c(OC)c1 | inactive: -13.5%
O=C(N/N=C1\CCCc2ccccc21)c1ccccc1Cl | inactive: 15.2%
O=C(Nc1cccnc1)C1CC(=O)N(c2ccc(F)cc2)C1 (configuration not stated) | inactive: 0.663%
Cc1ccc(C(CC(=O)O)Nc2nc(N3CCOCC3)nc(N3CCOCC3)n2)cc1 (configuration not stated) | inactive: -14.6%
Cc1ccc(CSCCNC(=O)c2ccccc2)cc1 | inactive: 22%
COc1ccc(N(C(=O)c2snc(C(N)=O)c2N)C(C(=O)NC2CCCC2)c2ccco2)cc1 (configuration not stated) | inactive: 12.2%
OCCNCc1cccc(OCc2ccc(Cl)cc2)c1 | inactive: -4.64%
CCC(C)NC(=O)c1ccc(CSCc2ccccc2Cl)o1 (configuration not stated) | inactive: 16.7%
CC1=C(C)CC(C(=O)NCCc2ccc(F)cc2)C(C(=O)O)C1 (configuration not stated) | inactive: -3.71%
CCn1c(-c2cc(-c3ccc(C)cc3)nc3ccccc23)n[nH]c1=S | inactive: 9.07%
CC(C)C(OC(=O)c1nsc(Cl)c1Cl)C(=O)NCc1ccccc1 (configuration not stated) | inactive: -2.84%

Structure (SMILES) | growth rescue (activation)
CCN(CC)C1CCS(=O)(=O)C1 (configuration not stated) | inactive: -3.63%
CCc1c(C)nc2nncn2c1Nc1cccc(C)c1 | inactive: 31.1%
COC(=O)[C@@H]1Cc2c([nH]c3ccccc23)C(C)(C)N1C(=O)CCl | inactive: 5.2%
COc1ccc(NC(=O)CN2C(=O)c3ccccc3S2(=O)=O)cc1OC | inactive: -20.8%
COc1ccc(N2CCN(C(=O)CSc3nc4ccccc4c(=O)[nH]3)CC2)cc1 | inactive: 15.2%
O=[n+]1cc(-c2ccc(Cl)cc2)n([O-])c2c1CCCCC2 | inactive: -11.1%
COc1ccc(CCC(=O)Nc2ccc3c(c2)OCO3)cc1OC | inactive: -0.696%
CCOC(=O)c1c(/N=C/c2ccc(C)cc2O)sc2c1CCN(C)C2 | inactive: -19.9%
CCOC(=O)C1(Cc2cccc(OC)c2)CCCN(Cc2nccn2CC)C1 (configuration not stated) | inactive: -10.2%
COc1ccccc1-c1nnc(SCC(=O)NC2CCCCC2)n1N | inactive: 11.3%
CCC(C)S(=O)(=O)c1snnc1C (configuration not stated) | inactive: 6.93%
N#C/C(=C/c1ccc(N2CCOCC2)o1)C(=O)N1CCOCC1 | inactive: 3.21%
O=C(CCCCCNC(=O)c1ccccc1)N/N=C/c1ccc(F)cc1 | inactive: 24.9%
CC(NC(=O)c1ccc2ccccc2n1)c1ccc(Br)cc1 (configuration not stated) | inactive: -7.52%
CCOC(=O)COc1ccc([N+](=O)[O-])cc1 | inactive: 1.24%
CC(O)(c1ccc(F)c(F)c1)c1nc(-c2ccoc2)cs1 (configuration not stated) | inactive: 21.4%
